Reference: article PMC4336329 (PLoS ONE, 2015)
The whole screen tested about 310,000 compounds, of which about 2,200 (0.71%) showed an effect of 50% or more. The effect is printed as a negative number. Some of the results follow.

Biological target: human ether-à-go-go-related gene (hERG) potassium channel (human, UniProt Q12809)
Assay: primary screen, population patch clamp on CHO cells stably expressing hERG

Sequence of human ether-à-go-go-related gene (hERG) potassium channel (Q12809 whole entry, looked up): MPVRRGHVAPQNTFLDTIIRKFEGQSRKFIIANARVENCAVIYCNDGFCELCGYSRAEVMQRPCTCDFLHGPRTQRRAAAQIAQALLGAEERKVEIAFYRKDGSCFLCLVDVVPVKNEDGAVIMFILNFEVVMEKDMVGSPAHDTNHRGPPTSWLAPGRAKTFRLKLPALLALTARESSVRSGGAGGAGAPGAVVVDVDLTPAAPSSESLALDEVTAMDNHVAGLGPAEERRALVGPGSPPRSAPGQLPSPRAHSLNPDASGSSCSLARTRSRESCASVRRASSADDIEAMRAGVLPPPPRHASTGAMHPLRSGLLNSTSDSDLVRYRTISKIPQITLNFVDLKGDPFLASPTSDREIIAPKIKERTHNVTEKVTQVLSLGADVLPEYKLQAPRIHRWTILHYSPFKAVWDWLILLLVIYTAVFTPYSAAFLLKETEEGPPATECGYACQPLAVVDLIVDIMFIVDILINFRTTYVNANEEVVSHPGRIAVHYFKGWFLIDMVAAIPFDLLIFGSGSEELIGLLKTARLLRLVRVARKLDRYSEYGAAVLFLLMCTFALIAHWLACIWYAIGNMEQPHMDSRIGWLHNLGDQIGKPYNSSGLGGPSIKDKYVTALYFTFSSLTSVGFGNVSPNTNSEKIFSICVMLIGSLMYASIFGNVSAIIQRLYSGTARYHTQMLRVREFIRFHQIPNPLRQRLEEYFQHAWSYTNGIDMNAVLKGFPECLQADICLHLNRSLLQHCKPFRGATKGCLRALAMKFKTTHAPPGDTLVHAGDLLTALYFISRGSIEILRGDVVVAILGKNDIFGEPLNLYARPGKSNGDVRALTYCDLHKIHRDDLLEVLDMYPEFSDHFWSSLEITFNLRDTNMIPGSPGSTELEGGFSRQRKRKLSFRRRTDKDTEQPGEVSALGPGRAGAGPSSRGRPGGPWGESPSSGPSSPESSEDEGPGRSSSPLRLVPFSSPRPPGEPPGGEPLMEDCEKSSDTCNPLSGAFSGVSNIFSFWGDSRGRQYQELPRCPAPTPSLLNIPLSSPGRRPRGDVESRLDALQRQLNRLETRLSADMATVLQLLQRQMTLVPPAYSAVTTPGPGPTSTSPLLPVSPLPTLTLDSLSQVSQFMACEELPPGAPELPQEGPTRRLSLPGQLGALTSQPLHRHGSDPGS

Going from `Cc1cccc(-c2nsc(SCC(=O)Nc3cc(C)on3)n2)c1` to `Cc1cc(NC(=O)COc2cccc(Oc3ccccc3)c2)no1`, the “hERG current change (%, negative = inhibition) at 1uM” value falls from 12.8% to 2.18%.

First: Cc1c(C)n(CCCN(C)C)c2ncnc(Nc3ccc(F)cc3)c12
Second: Cc1ccc(CSc2ncnc3c2cnn3Cc2ccccc2)cc1C
The “hERG current change (%, negative = inhibition) at 1uM” value of the first is lower: -3.3% for the first, -0.97% for the second.

First: CNS(=O)(=O)c1cc(-c2nnc(Nc3ccc(CC(N)=O)cc3)c3ccccc23)ccc1C
Second: COc1ccc(Nc2nc3ccccc3nc2NS(=O)(=O)c2cccs2)cc1
The “hERG current change (%, negative = inhibition) at 1uM” value of the first is higher: 14% for the first, 5.73% for the second.

First: COC(=O)c1cc(NC(=O)c2c(Cl)cnn2C)cc(C(=O)OC)c1
Second: COc1ccc(C)cc1NC(=O)c1c([N+](=O)[O-])cnn1C
The “hERG current change (%, negative = inhibition) at 1uM” value of the first is lower: 8.09% for the first, 13.6% for the second.

Going from `CC1=CC(C)(C)N2C(=O)C3(C(C#N)=C(N)OC4=C3C(=O)CC(C)(C)C4)c3c(C)c(C)cc1c32` (stereo not drawn) to `Cc1cc2c(c(=O)n1Cc1ccc3c(c1)OCO3)C(c1cccnc1)C(C#N)=C(N)O2` (stereo not drawn), the “hERG current change (%, negative = inhibition) at 1uM” value rises from 0.778% to 13.4%.

Compared with `CC(C)N(CCCNC(=O)C1CCN(S(=O)(=O)N2CCOCC2)CC1)Cc1ccccc1`, `O=C(O)C1CCN(c2ccc(S(=O)(=O)N3CCOCC3)cc2[N+](=O)[O-])CC1` is higher in “hERG current change (%, negative = inhibition) at 1uM” value: 7.47% for the first, 7.61% for the second.

Compared with `COCCCNC(=O)Cc1ccc(-n2c(C)nc3cccnc32)cc1`, `CCOc1ccc(CCNC(=O)CSCc2ccc(C)cc2)cc1OCC` is lower in “hERG current change (%, negative = inhibition) at 1uM” value: 4.61% for the first, -2.98% for the second.

First: Cc1[nH]c(=O)c(C#N)cc1-c1ccccc1
Second: O=c1cc(-c2ccccc2)oc2ccccc12
The “hERG current change (%, negative = inhibition) at 1uM” value of the first is lower: -7.61% for the first, 13% for the second.

First: Cc1cc(C)c[n+](-c2nc3ccccc3nc2[N-]S(=O)(=O)c2cccs2)c1
Second: Cc1ccc(S(=O)(=O)c2nc(-c3ccccc3Br)oc2N(C)C)cc1
The “hERG current change (%, negative = inhibition) at 1uM” value of the first is higher: 2.45% for the first, 1.36% for the second.

First: O=C(NCc1ccc(F)cc1)C(c1ccncc1)N(C(=O)c1csnn1)C1CC1 (stereo not drawn)
Second: COc1ccc(CCNC(=O)C2CCN(C(=O)c3ccc(F)cc3)CC2)cc1
The “hERG current change (%, negative = inhibition) at 1uM” value of the first is lower: 3.06% for the first, 17% for the second.

Going from `O=C(CN1CCN(Cc2ccccc2)CC1)N1N=CCC1c1ccccc1` (stereo not drawn) to `COc1ccccc1-n1cnnc1SCC(=O)N1CCN(S(=O)(=O)c2ccccc2)CC1`, the “hERG current change (%, negative = inhibition) at 1uM” value rises from 10% to 16%.

First: CCC(C)NC(=O)C(Cc1ccccc1)NS(=O)(=O)c1ccc2c(c1)oc(=O)n2C (stereo not drawn)
Second: CC(CC(=O)N1CCc2ccccc21)S(=O)(=O)c1ccc2c(c1)NC(=O)CO2 (stereo not drawn)
The “hERG current change (%, negative = inhibition) at 1uM” value of the first is higher: 12.2% for the first, -1.19% for the second.

Going from `O=C(O)c1cc(-c2cccs2)nn1-c1ccccc1` to `O=C(COC(=O)C1CC(=O)N(c2nc(-c3ccccc3)cs2)C1)c1ccccc1` (stereo not drawn), the “hERG current change (%, negative = inhibition) at 1uM” value rises from 11.3% to 11.6%.

Going from `COc1ccc(-c2c[n+](CC(=O)c3ccccc3)c3n2CCCCC3)cc1.[Br-]` to `O=C(c1cc(-c2ccc(F)cc2)on1)N1CCCc2ccccc21`, the “hERG current change (%, negative = inhibition) at 1uM” value falls from 13.7% to 0.302%.

Compared with `COC(=O)c1cc(NC(=O)C2COc3ccccc3O2)ccc1Cl` (stereo not drawn), `CC(=O)Nc1ccc(-c2nnn(CC(=O)Nc3ccc4c(c3)OCO4)n2)cc1Cl` is higher in “hERG current change (%, negative = inhibition) at 1uM” value: 0.928% for the first, 12.7% for the second.

Going from `Cc1c(Cl)cccc1NC(=O)Cn1nnc(C(=O)NCc2cccs2)c1N` to `COCC(=O)Nc1cc(C(=O)Nc2cccc(C)c2C)ccc1Cl`, the “hERG current change (%, negative = inhibition) at 1uM” value falls from 11.4% to 10.4%.

Compared with `CC(=O)Nc1ccc(S(=O)(=O)c2c(N)n(CCN3CCOCC3)c3nc4ccccc4nc23)cc1`, `CCOC(=O)c1cnn(-c2ccccc2)c1NC(=O)CN1CCOCC1` is higher in “hERG current change (%, negative = inhibition) at 1uM” value: 3.97% for the first, 15.7% for the second.

First: COc1ccc(Cc2nnc(NC(=O)Cn3cnc4c3c(=O)n(C)c(=O)n4C)s2)cc1OC
Second: COc1ccc(CCN2CC(C(=O)Nc3ccc4c(c3)OCO4)CC2=O)cc1OC (stereo not drawn)
The “hERG current change (%, negative = inhibition) at 1uM” value of the first is higher: 19.7% for the first, 17.1% for the second.

Going from `Cn1c(Cn2c(=O)sc3ccccc32)nnc1SCc1ccccn1` to `Cc1ccc(NCc2nnc(SCC(=O)N3CCc4ccccc43)n2C)cc1`, the “hERG current change (%, negative = inhibition) at 1uM” value rises from -0.264% to 9.22%.

Compared with `CC(C)Cn1c(-c2nn(C)cc2Cl)n[nH]c1=S`, `Nn1c(-c2ccco2)n[nH]c1=S` is lower in “hERG current change (%, negative = inhibition) at 1uM” value: 15.2% for the first, 12.1% for the second.

First: CN(CC(=O)Nc1ccccc1Br)C(=O)COc1ccc2ccccc2c1
Second: O=C(Nc1ccccc1C(=O)NCCc1ccc(O)cc1)c1ccco1
The “hERG current change (%, negative = inhibition) at 1uM” value of the first is lower: 6.32% for the first, 14.8% for the second.

First: CC(=O)CSc1nc(-c2ccccc2)c(-c2ccccc2)o1
Second: O=C(CCN1C(=O)C2(OCCO2)c2ccccc21)c1ccccc1
The “hERG current change (%, negative = inhibition) at 1uM” value of the first is higher: 10.1% for the first, 9.82% for the second.

Compared with `Cl.O=C(Nc1cc(S(=O)(=O)N2CCCCC2)ccc1O)c1ccccc1NS(=O)(=O)c1ccc(F)cc1`, `Cc1ccc(C(=O)NCc2ccc3c(c2)OCO3)cc1S(=O)(=O)N1CCCCC1` is lower in “hERG current change (%, negative = inhibition) at 1uM” value: 15.2% for the first, 4.53% for the second.

Compared with `CCOC(=O)N1CCN(C(=O)CS(=O)(=O)c2cn(Cc3ccc(F)cc3)c3ccccc23)CC1`, `COc1ccccc1N1CCN(C(=O)CCC(=O)N2CCN(c3ccc(F)cc3)CC2)CC1` is higher in “hERG current change (%, negative = inhibition) at 1uM” value: -5.43% for the first, 13.6% for the second.

Compared with `COc1ccc2cc(C(=O)Nc3c(C)n(C)n(-c4ccccc4)c3=O)sc(=O)c2c1OC`, `Cc1[nH]n(-c2ccc(Cl)cc2)c(=O)c1/C=N/n1c(C)nc2ccccc2c1=O` is lower in “hERG current change (%, negative = inhibition) at 1uM” value: 17.1% for the first, -6.75% for the second.

Going from `C=C[C@H]1CN2CC[C@H]1C[C@H]2[C@H](O)c1ccnc2ccccc12` to `CC(C)c1ccc(NC2CCCN(C(=O)CSc3nncn3C)C2)cc1` (stereo not drawn), the “hERG current change (%, negative = inhibition) at 1uM” value rises from 2.5% to 11.2%.

Compared with `CCOC(=O)C1(Cc2ccccc2)CCN(Cc2cccc(OC)c2O)CC1`, `COc1ccc(N(Cc2cc3cccc(C)c3[nH]c2=O)C(=O)C2CCCO2)cc1` (stereo not drawn) is higher in “hERG current change (%, negative = inhibition) at 1uM” value: -31% for the first, 6.76% for the second.

First: O=[N+]([O-])c1cc2c(cc1[N+](=O)[O-])OCCOCCOCCOCCO2
Second: O=C(CCCn1c(=S)[nH]c2cc3c(cc2c1=O)OCO3)N1CCN(c2ncccn2)CC1
The “hERG current change (%, negative = inhibition) at 1uM” value of the first is lower: -7.06% for the first, -1.33% for the second.

First: CCNc1nc(NCC)nc(Oc2ccc(OCc3ccccc3)nn2)n1
Second: COc1ccc(-c2noc(COC(=O)c3ccco3)n2)cc1OC
The “hERG current change (%, negative = inhibition) at 1uM” value of the first is lower: 7.54% for the first, 18.5% for the second.

Going from `COc1ccc(C(=O)NCCCCNC(=O)c2ccc(OC)c(OC)c2)cc1OC` to `CC(C)(C)c1ccc(C(=O)Nc2ccc(C(=O)NCc3cccnc3)cc2)cc1`, the “hERG current change (%, negative = inhibition) at 1uM” value falls from 12.5% to 5.13%.

Going from `CC(=O)Cc1nsc(NC(=O)c2ccc(COc3ccc(C)cc3)o2)n1` to `Cc1cc(NC(=O)c2ccc(Br)o2)ccc1NC(=O)c1ccco1`, the “hERG current change (%, negative = inhibition) at 1uM” value falls from 9.46% to -10.9%.

Compared with `C=CCNC(=O)COC(=O)c1ccc(C)c(NC(=O)c2ccco2)c1`, `CCC(C)C(NC(=O)c1ccc(Cl)cc1)C(=O)Nc1cccnc1` (stereo not drawn) is lower in “hERG current change (%, negative = inhibition) at 1uM” value: 11.7% for the first, 9.75% for the second.

Going from `Cc1nc(=S)c2c([nH]1)-c1ccccc1CC21CCCCC1` to `O=C(CN1C(=O)NC2(CCc3ccccc32)C1=O)NCC(=O)Nc1ccc(F)cc1` (stereo not drawn), the “hERG current change (%, negative = inhibition) at 1uM” value falls from 13.2% to 5.83%.

First: Cc1cc2n(n1)C(c1cn(-c3ccccc3)nc1C)Nc1ccccc1-2 (stereo not drawn)
Second: CCCn1nc(C(=O)N2CCc3ccccc32)c2ccccc2c1=O
The “hERG current change (%, negative = inhibition) at 1uM” value of the first is lower: 9.28% for the first, 12.8% for the second.

Compared with `COC1=C/C(=C/c2c(N)n3nc(CC(=O)N4CCCC4)sc3nc2=O)C=CC1=O`, `Cc1cc(S(=O)(=O)N2CCCC2)c(C)s1` is lower in “hERG current change (%, negative = inhibition) at 1uM” value: 15.4% for the first, 5.88% for the second.

Compared with `COc1cccc(C2C(C(=O)c3ccc(C)o3)=C(O)C(=O)N2c2cc(C)on2)c1` (stereo not drawn), `Cc1cc(C(=O)NC2CCCc3c2cnn3-c2cccc(C)c2C)no1` (stereo not drawn) is lower in “hERG current change (%, negative = inhibition) at 1uM” value: 5.9% for the first, 1.08% for the second.

Compared with `CN=C(c1ccc(C)cc1)n1c(=S)nc(-c2ccc(C)cc2)n(C)c1=S`, `COc1ccc([C@@]2(O)c3c(ccc(CC=C(C)C)c3O)NC(=O)[C@@H]2OC)cc1` is lower in “hERG current change (%, negative = inhibition) at 1uM” value: 18.4% for the first, 17.9% for the second.

First: Fc1ccccc1Cc1noc(CN2CCN(Cc3ccc4c(c3)OCO4)CC2)n1
Second: Cc1cc(C)c2[nH]c(=O)c(CN(CC3CCCO3)C(=S)NCc3ccco3)cc2c1 (stereo not drawn)
The “hERG current change (%, negative = inhibition) at 1uM” value of the first is lower: -3.98% for the first, 4.55% for the second.

First: CC(=O)Nc1ccc(NC(=O)C(C)n2nc([N+](=O)[O-])c(Br)c2C)cc1 (stereo not drawn)
Second: Cc1c(Br)c(C(=O)NCc2cc3cc(Cl)ccc3[nH]2)nn1C
The “hERG current change (%, negative = inhibition) at 1uM” value of the first is lower: 12.5% for the first, 13.2% for the second.

Compared with `Cc1ccc(CNC(=O)CSc2nc3[nH]ncc3c(=O)[nH]2)cc1`, `N#Cc1c(NC(=O)CSc2ncn[nH]2)sc2c1CCCCC2` is higher in “hERG current change (%, negative = inhibition) at 1uM” value: 6.8% for the first, 7.88% for the second.

Compared with `C=CCC(C#Cc1ccccc1)[N+](C)(C)CC=C.[Br-]` (stereo not drawn), `O=C(O)Cn1nnnc1SCC(=O)Nc1ccc(F)cc1F` is higher in “hERG current change (%, negative = inhibition) at 1uM” value: 6.41% for the first, 17.8% for the second.

Compared with `CC(C)C[C@H](NC(=O)c1nc[nH]c1C(=O)NC1CCN(C(=O)OC(C)(C)C)CC1)C(=O)OC(C)(C)C`, `COc1cc2c(cc1OC)C1CC(=O)C(CC(C)C)CN1CC2` (stereo not drawn) is higher in “hERG current change (%, negative = inhibition) at 1uM” value: -0.581% for the first, 10.6% for the second.
